From paper PMC4336329 (PLoS ONE, 2015)
Screen size: about 310,000 compounds; about 14,000 (4.5%) showed an effect of 50% or more. Effects have a minus sign here. The list shows a part of the results.

Biological target: human ether-à-go-go-related gene (hERG) potassium channel (human, UniProt Q12809)
Assay: primary screen, population patch clamp on CHO cells stably expressing hERG
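Further: peak tail current of the secondary pulse compared with the same well before compound.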

human ether-à-go-go-related gene (hERG) potassium channel, sequence (Q12809 whole entry, looked up): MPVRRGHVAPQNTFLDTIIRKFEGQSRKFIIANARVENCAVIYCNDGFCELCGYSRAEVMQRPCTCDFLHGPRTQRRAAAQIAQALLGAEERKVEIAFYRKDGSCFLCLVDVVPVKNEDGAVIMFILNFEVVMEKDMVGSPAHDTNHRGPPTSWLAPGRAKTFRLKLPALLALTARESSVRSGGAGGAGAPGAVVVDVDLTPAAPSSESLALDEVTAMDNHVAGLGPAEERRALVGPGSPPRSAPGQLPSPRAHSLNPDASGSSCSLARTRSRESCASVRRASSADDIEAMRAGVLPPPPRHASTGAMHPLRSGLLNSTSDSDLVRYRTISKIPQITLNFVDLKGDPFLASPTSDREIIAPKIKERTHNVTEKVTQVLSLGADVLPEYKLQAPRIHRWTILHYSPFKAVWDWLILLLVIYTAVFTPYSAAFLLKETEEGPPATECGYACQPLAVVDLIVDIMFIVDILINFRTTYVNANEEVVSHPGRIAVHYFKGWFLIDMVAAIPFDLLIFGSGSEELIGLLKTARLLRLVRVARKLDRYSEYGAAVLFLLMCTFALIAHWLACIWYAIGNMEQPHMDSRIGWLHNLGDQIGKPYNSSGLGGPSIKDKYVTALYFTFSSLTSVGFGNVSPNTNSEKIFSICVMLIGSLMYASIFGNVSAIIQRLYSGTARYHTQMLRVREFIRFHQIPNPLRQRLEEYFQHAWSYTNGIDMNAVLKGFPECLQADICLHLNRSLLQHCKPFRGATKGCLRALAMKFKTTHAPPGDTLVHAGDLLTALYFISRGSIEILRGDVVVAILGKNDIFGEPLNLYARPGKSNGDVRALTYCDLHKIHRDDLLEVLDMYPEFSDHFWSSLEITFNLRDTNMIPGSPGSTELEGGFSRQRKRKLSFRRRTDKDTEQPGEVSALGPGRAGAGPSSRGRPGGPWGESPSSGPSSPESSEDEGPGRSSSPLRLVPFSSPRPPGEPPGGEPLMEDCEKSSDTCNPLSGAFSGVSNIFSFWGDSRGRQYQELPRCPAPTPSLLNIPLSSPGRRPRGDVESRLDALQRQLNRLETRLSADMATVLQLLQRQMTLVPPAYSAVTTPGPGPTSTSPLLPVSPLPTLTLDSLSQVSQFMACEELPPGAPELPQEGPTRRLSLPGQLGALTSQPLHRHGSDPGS

Row | Structure (SMILES) | hERG current change (%, negative = inhibition) at 10uM [%]
1 | CCC(=O)N=c1n(C)c2ccccc2n1CCOc1ccccc1 | -6.66
2 | CCOC(=O)CNc1nc(Cl)c(C#N)s1 | 1.49
3 | CCCCN(C(=O)c1ccc(N2CCCC2=O)cc1)c1c(N)n(CC(C)C)c(=O)[nH]c1=O | 3.67
4 | COc1ccc(OC)c(S(=O)(=O)NCCS(=O)(=O)N2CCN(c3ccccc3)CC2)c1 | -1.2
5 | CCOc1nc(-c2ccc(Cl)cc2Cl)ccc1C#N | -1.99
6 | O=C(CN1C(=O)/C(=C/c2cccc(Br)c2)SC1=S)NC1=NCCS1 | 26
7 | COc1ccccc1C(=O)Nc1cccc2nc(C)ccc12 | 8
8 | Nc1cc(-c2ccc(Br)cc2)[nH]n1 | -1.2
9 | COc1ccc(S(=O)(=O)N2CCC(C(=O)N[C@@H](C)C(=O)NCc3ccncc3)CC2)cc1 | 11.1
10 | O=C(CNC(=O)c1cncc(Br)c1)Nc1ccc(F)c(F)c1F | 8.94
11 | COC(=O)C1CN(S(=O)(=O)c2ccc(C)cc2)CCN1S(=O)(=O)c1ccc(C)cc1 (stereo not shown) | 17.2
12 | Cc1ccccc1Nc1nc(N)nc(CSc2nnnn2-c2ccccc2)n1 | -26.5
13 | Cc1cc(C)n2c(SCC(=O)Nc3ccccc3C#N)nnc2n1 | 5.73
14 | N#Cc1ccc(Oc2ccc(-c3cnc4ccccc4n3)cc2)cc1C#N | -9.33
15 | C=CCn1c(SCC(=O)O)nnc1-c1cccc(Cl)c1 | 4.71
16 | c1ccc(Sc2ncnc3ccccc23)cc1 | -1.28
17 | O=C(/C=C/c1ccccc1)c1ccccc1O | 6.1
18 | Cc1ccc(NC(=O)[C@H](C)NC(=O)C2CCN(C(=O)[C@@H](NC(=O)OC(C)(C)C)C(C)C)CC2)cc1 | 2.13
19 | COc1ccc(C(=O)c2cn[nH]c2-c2ccc(C)cc2O)cc1 | -2.49
20 | NC1=NC[C@H](Cc2ccccc2)N1CCCCC1CCCCC1 | -25.9
21 | O=C(CCS(=O)(=O)Cc1ccccc1)NCc1ccco1 | 8.13
22 | COc1ccc(C2N(C(=O)c3ccccc3)CCN2C(=O)c2ccccc2)cc1 | -15.6
23 | O=C(CN1C(=O)C(=O)N(Cc2ccccc2)C1=O)c1ccc[nH]1 | -1.19
24 | [O-][n+]1onc2c1CCc1c-2nn(-c2ccccc2Cl)[n+]1[O-] | -2.46
25 | Cc1ccc2[nH]c(=O)c(C3=NN(C(=O)CCC(=O)O)C(c4cccs4)C3)c(-c3ccccc3)c2c1 (stereo not shown) | 14.2
